{
  "source": "the antibiotic and cytotoxicity screens of Wong et al. (2023)",
  "note": "Some of the results follow.",
  "data": [
    {"system": "HepG2", "assay": "cytotoxicity call (relative viability < 0.9)", "conditions": "10 µM", "values": [
      {"smiles": "Cc1ccc(S(=O)(=O)Nc2ccc3c(c2)C(=O)N([C@@H](C)CO)C[C@H](C)[C@H](CN(C)Cc2ccccc2)OCCCC[C@@H](C)O3)cc1", "cytotoxicity call": "inactive"},
      {"smiles": "C[C@@H]1CN([C@@H](C)CO)C(=O)CCCn2nncc2CO[C@H]1CN(C)C(=O)Nc1ccc(C(F)(F)F)cc1", "cytotoxicity call": "inactive"},
      {"smiles": "C[C@@H]1CN([C@@H](C)CO)C(=O)Cc2cc(NS(=O)(=O)c3cn(C)cn3)ccc2O[C@H]1CN(C)C(=O)Nc1ccc(F)cc1", "cytotoxicity call": "inactive"},
      {"smiles": "C[C@H](CO)N1C[C@H](C)[C@@H](CN(C)S(C)(=O)=O)Oc2c(NC(=O)c3cnccn3)cccc2C1=O", "cytotoxicity call": "inactive"},
      {"smiles": "Nc1nnnn1/N=C\\c1ccc(O)cc1", "cytotoxicity call": "inactive"},
      {"smiles": "C[C@@H]1CN([C@H](C)CO)C(=O)Cc2cc(NS(=O)(=O)c3cn(C)cn3)ccc2O[C@@H]1CN(C)S(=O)(=O)c1ccccc1", "cytotoxicity call": "inactive"},
      {"smiles": "Cc1noc(C)c1S(=O)(=O)N(C)C[C@H]1Oc2ccc(NS(=O)(=O)c3cccs3)cc2CC(=O)N([C@H](C)CO)C[C@H]1C", "cytotoxicity call": "inactive"},
      {"smiles": "C[C@@H]1CCCCO[C@@H](CN(C)CC2CC2)[C@@H](C)CN([C@H](C)CO)C(=O)c2cc(NC(=O)Nc3ccc(F)cc3)ccc2O1", "cytotoxicity call": "inactive"}
    ]},
    {"system": "S. aureus RN4220", "assay": "growth inhibition call (relative growth <= 0.2)", "conditions": "50 µM", "values": [
      {"smiles": "C[C@@H]1CN([C@H](C)CO)C(=O)Cc2cc(NS(=O)(=O)c3ccc(F)cc3)ccc2O[C@@H]1CN(C)Cc1ccc(Oc2ccccc2)cc1", "growth inhibition call": "inactive"},
      {"smiles": "CN(C)CC(=O)N1[C@@H]2c3ccc(-c4ccccc4)c(=O)n3C[C@H]1[C@H](CO)[C@H]2C(=O)N1CCN(C)CC1", "growth inhibition call": "inactive"},
      {"smiles": "O=C(CN1CCOCC1)NCC[C@H]1CC[C@H](NC(=O)c2ccc3c(c2)OCO3)[C@H](CO)O1", "growth inhibition call": "inactive"},
      {"smiles": "COc1ccc(NC(=O)Nc2ccc3c(c2)CC(=O)N([C@@H](C)CO)C[C@@H](C)[C@@H](CN(C)Cc2ccc(C(F)(F)F)cc2)O3)cc1", "growth inhibition call": "inactive"},
      {"smiles": "C[C@@H]1CN([C@H](C)CO)C(=O)c2cc(NS(=O)(=O)c3cccs3)ccc2O[C@@H]1CN(C)S(=O)(=O)c1ccc(F)cc1", "growth inhibition call": "inactive"},
      {"smiles": "C[C@@H]1CN([C@@H](C)CO)C(=O)c2cccc(NC(=O)Nc3ccc(C(F)(F)F)cc3)c2O[C@@H]1CN(C)Cc1ccccc1", "growth inhibition call": "inactive"},
      {"smiles": "CCCC(=O)Nc1ccc(OCC(O)CNC(C)C)c(C(C)=O)c1.Cl", "note": "(stereo not drawn)", "growth inhibition call": "inactive"},
      {"smiles": "C[C@@H]1CN([C@H](C)CO)C(=O)c2c(c3ccccc3n2C)-c2ccccc2CO[C@H]1CN(C)Cc1cccc(O)c1", "growth inhibition call": "inactive"},
      {"smiles": "Cc1occc1C(=O)NNC(=O)C1CC1", "growth inhibition call": "inactive"},
      {"smiles": "C[C@@H]1CCCCO[C@H](CN(C)S(=O)(=O)c2ccc(F)cc2)[C@@H](C)CN([C@@H](C)CO)C(=O)c2cc(NC(=O)C3CCCCC3)ccc2O1", "growth inhibition call": "inactive"},
      {"smiles": "C[C@@H]1CN([C@@H](C)CO)C(=O)c2cc(NC(=O)Nc3ccc4c(c3)OCO4)ccc2O[C@@H]1CN(C)Cc1ccc(-c2ccccc2)cc1", "growth inhibition call": "inactive"},
      {"smiles": "Cc1ccc(S(=O)(=O)N[C@@H](Cc2ccccc2)C(=O)NCCn2cc(-c3ccccc3N)nn2)cc1", "growth inhibition call": "inactive"},
      {"smiles": "COCC(=O)N1CC[C@]2(CC1)CN(Cc1cccc(c1)OC)[C@@H](CO)c1c2c2ccc(cc2n1C)OC", "growth inhibition call": "inactive"},
      {"smiles": "COCC(=O)Nc1ccc2c(c1)OC[C@@H](C)N(Cc1cccc(F)c1)C[C@H](C)[C@H](OC)CN(C)C2=O", "growth inhibition call": "inactive"},
      {"smiles": "C[C@H](CO)N1C[C@H](C)[C@@H](CN(C)Cc2ccc(C(F)(F)F)cc2)OCCCC[C@H](C)Oc2ccc(NC(=O)Nc3ccccc3)cc2C1=O", "growth inhibition call": "inactive"},
      {"smiles": "C[C@H](CO)N1C[C@H](C)[C@H](CN(C)Cc2ccc(C(=O)Nc3ccccc3N)cc2)Oc2ccc(NC(=O)Cc3cn(C)c4ccccc34)cc2C1=O", "growth inhibition call": "inactive"},
      {"smiles": "OCc1cn(-c2ccccc2)nn1", "growth inhibition call": "inactive"},
      {"smiles": "COc1oc(C(=O)NC2CCCCC2)c(-c2ccc(Cl)cc2)c1S(=O)(=O)/C=C/c1ccccc1", "growth inhibition call": "inactive"},
      {"smiles": "C[C@@H]1CN([C@@H](C)CO)C(=O)CCCn2cc(nn2)CO[C@@H]1CN(C)C(=O)Nc1ccc(C(C)(C)C)cc1", "growth inhibition call": "inactive"},
      {"smiles": "COC(=O)C[C@@H]1CC[C@H]2[C@@H](COC[C@H](O)CN2S(=O)(=O)c2ccc(F)cc2)O1", "growth inhibition call": "inactive"},
      {"smiles": "COc1ccc(CN(C)C[C@H]2OCCCC[C@@H](C)Oc3ccc(NC(=O)C4CCCCC4)cc3C(=O)N([C@H](C)CO)C[C@H]2C)cc1", "growth inhibition call": "inactive"},
      {"smiles": "COc1ccc(NC(=O)Nc2ccc3c(c2)C(=O)N([C@H](C)CO)C[C@H](C)[C@@H](CN(C)C(=O)NC(C)C)OCCCC[C@H](C)O3)cc1", "growth inhibition call": "inactive"},
      {"smiles": "CCOc1ccc(-n2c([C@@H](C)N(Cc3cccnc3)C(=O)Cc3ccc(F)c(C(F)(F)F)c3)nc3ncccc3c2=O)cc1", "growth inhibition call": "inactive"},
      {"smiles": "CN(C)Cc1cn(CC[C@@H]2CC[C@H](N)[C@@H](CO)O2)nn1", "growth inhibition call": "inactive"},
      {"smiles": "CN(C)C1C(O)=C(C(N)=O)C(=O)C2(O)C(O)=C3C(=O)c4c(O)cccc4C(C)(O)C3CC12.Cl", "note": "(stereo not drawn)", "growth inhibition call": "inactive"},
      {"smiles": "CN1C(=O)c2cc(NC(=O)c3cscn3)ccc2OC[C@H]2O[C@H](CC(=O)N3CCOCC3)CC[C@@H]21", "growth inhibition call": "inactive"},
      {"smiles": "COc1ccc(-c2cnc3c(c2)C(=O)N([C@H](C)CO)C[C@H](C)[C@H](CN(C)S(=O)(=O)c2cccs2)O3)cc1", "growth inhibition call": "inactive"},
      {"smiles": "CN1CCC(N(C)C(=O)COc2ccc(S(=O)(=O)N3CCOCC3)cc2)CC1", "growth inhibition call": "inactive"},
      {"smiles": "Nc1ccn(C2CCC(CO)O2)c(=O)n1", "note": "(stereo not drawn)", "growth inhibition call": "inactive"},
      {"smiles": "C(=N\\n1cnnc1)/c1ccccn1", "growth inhibition call": "inactive"},
      {"smiles": "C[C@@H]1CCCCO[C@@H](CN(C)C(=O)C2CCCCC2)[C@H](C)CN([C@@H](C)CO)C(=O)c2cc(NC(=O)Nc3ccc(C(F)(F)F)cc3)ccc2O1", "growth inhibition call": "inactive"},
      {"smiles": "C[C@H]1CN([C@@H](C)CO)C(=O)Cc2cc(NC(=O)Cn3cnnn3)ccc2O[C@H]1CN(C)Cc1ccc(Oc2ccccc2)cc1", "growth inhibition call": "inactive"},
      {"smiles": "Cc1ccc(S(=O)(=O)Nc2ccc3c(c2)C(=O)N([C@@H](C)CO)C[C@H](C)[C@H](CN(C)Cc2ccccc2)OCCCC[C@@H](C)O3)cc1", "growth inhibition call": "inactive"},
      {"smiles": "C[C@@H]1CN([C@@H](C)CO)C(=O)CCCn2nncc2CO[C@H]1CN(C)C(=O)Nc1ccc(C(F)(F)F)cc1", "growth inhibition call": "inactive"},
      {"smiles": "C[C@@H]1CN([C@@H](C)CO)C(=O)Cc2cc(NS(=O)(=O)c3cn(C)cn3)ccc2O[C@H]1CN(C)C(=O)Nc1ccc(F)cc1", "growth inhibition call": "inactive"},
      {"smiles": "C[C@H](CO)N1C[C@H](C)[C@@H](CN(C)S(C)(=O)=O)Oc2c(NC(=O)c3cnccn3)cccc2C1=O", "growth inhibition call": "inactive"},
      {"smiles": "Nc1nnnn1/N=C\\c1ccc(O)cc1", "growth inhibition call": "inactive"},
      {"smiles": "C[C@@H]1CN([C@H](C)CO)C(=O)Cc2cc(NS(=O)(=O)c3cn(C)cn3)ccc2O[C@@H]1CN(C)S(=O)(=O)c1ccccc1", "growth inhibition call": "inactive"},
      {"smiles": "Cc1noc(C)c1S(=O)(=O)N(C)C[C@H]1Oc2ccc(NS(=O)(=O)c3cccs3)cc2CC(=O)N([C@H](C)CO)C[C@H]1C", "growth inhibition call": "inactive"},
      {"smiles": "C[C@@H]1CCCCO[C@@H](CN(C)CC2CC2)[C@@H](C)CN([C@H](C)CO)C(=O)c2cc(NC(=O)Nc3ccc(F)cc3)ccc2O1", "growth inhibition call": "inactive"}
    ]}
  ]
}
